# In the supplement of paper PMC8728848:
# This is one part of the list.
# B1: MMR (Homo sapiens), P22897 (protein)
# chain: MRLPLLLVFASVIPGAVLLLDTRQFLIYNEDHKRCVDAVSPSAVQTAACNQDAESQKFRWVSESQIMSVAFKLCLGVPSKTDWVAITLYACDSKSEFQKWECKNDTLLGIKGEDLFFNYGNRQEKNIMLYKGSGLWSRWKIYGTTDNLCSRGYEAMYTLLGNANGATCAFPFKFENKWYADCTSAGRSDGWLWCGTTTDYDTDKLFGYCPLKFEGSESLWNKDPLTSVSYQINSKSALTWHQARKSCQQQNAELLSITEIHEQTYLTGLTSSLTSGLWIGLNSLSFNSGWQWSDRSPFRYLNWLPGSPSAEPGKSCVSLNPGKNAKWENLECVQKLGYICKKGNTTLNSFVIPSESDVPTHCPSQWWPYAGHCYKIHRDEKKIQRDALTTCRKEGGDLTSIHTIEELDFIISQLGYEPNDELWIGLNDIKIQMYFEWSDGTPVTFTKWLRGEPSHENNRQEDCVVMKGKDGYWADRGCEWPLGYICKMKSRSQGPEIVEVEKGCRKGWKKHHFYCYMIGHTLSTFAEANQTCNNENAYLTTIEDRYEQAFLTSFVGLRPEKYFWTGLSDIQTKGTFQWTIEEEVRFTHWNSDMPGRKPGCVAMRTGIAGGLWDVLKCDEKAKFVCKHWAEGVTHPPKPTTTPEPKCPEDWGASSRTSLCFKLYAKGKHEKKTWFESRDFCRALGGDLASINNKEEQQTIWRLITASGSYHKLFWLGLTYGSPSEGFTWSDGSPVSYENWAYGEPNNYQNVEYCGELKGDPTMSWNDINCEHLNNWICQIQKGQTPKPEPTPAPQDNPPVTEDGWVIYKDYQYYFSKEKETMDNARAFCKRNFGDLVSIQSESEKKFLWKYVNRNDAQSAYFIGLLISLDKKFAWMDGSKVDYVSWATGEPNFANEDENCVTMYSNSGFWNDINCGYPNAFICQRHNSSINATTVMPTMPSVPSGCKEGWNFYSNKCFKIFGFMEEERKNWQEARKACIGFGGNLVSIQNEKEQAFLTYHMKDSTFSAWTGLNDVNSEHTFLWTDGRGVHYTNWGKGYPGGRRSSLSYEDADCVVIIGGASNEAGKWMDDTCDSKRGYICQTRSDPSLTNPPATIQTDGFVKYGKSSYSLMRQKFQWHEAETYCKLHNSLIASILDPYSNAFAWLQMETSNERVWIALNSNLTDNQYTWTDKWRVRYTNWAADEPKLKSACVYLDLDGYWKTAHCNESFYFLCKRSDEIPATEPPQLPGRCPESDHTAWIPFHGHCYYIESSYTRNWGQASLECLRMGSSLVSIESAAESSFLSYRVEPLKSKTNFWIGLFRNVEGTWLWINNSPVSFVNWNTGDPSGERNDCVALHASSGFWSNIHCSSYKGYICKRPKIIDAKPTHELLTTKADTRKMDPSKPSSNVAGVVIIVILLILTGAGLAAYFFYKKRRVHLPQEGAFENTLYFNSQSSPGTSDMKDLVGNIEQNEHSVI
# How the values were obtained:
# Test in all cases: glycan array binding signal (z-score within array); higher = stronger binding
# Settings in all cases: glycan notation: IUPAC condensed, linker removed
# Fuc(a1-2)Gal = target: Fuc(a1-2)Gal
# How it was run: (§1)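 Negative Z-scores can be read as non-binding. The Z-score is calculated within each array and then averaged across arrays of one protein sequence at different concentrations or buffers and across linkers. Arrays, 3228 in all, were curated from the Consortium for Functional Glycomics database and kept only where the protein sequence was available.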
# Fuc(a1-2)Gal(b1-3)GalNAc = target: Fuc(a1-2)Gal(b1-3)GalNAc
# How it was run: as §1
# [1] = target: Fuc(a1-2)Gal(b1-3)GalNAc(b1-3)Gal
# How it was run: as §1
# [2] = target: Fuc(a1-2)Gal(b1-3)GalNAc(b1-3)Gal(a1-4)Gal(b1-4)Glc
# How it was run: as §1
# [3] = target: Fuc(a1-2)Gal(b1-3)GalNAc(b1-4)[Neu5Ac(a2-3)]Gal(b1-4)Glc
# How it was run: as §1
# Fuc(a1-2)Gal(b1-3)GlcNAc = target: Fuc(a1-2)Gal(b1-3)GlcNAc
# How it was run: as §1
# [4] = target: Fuc(a1-2)Gal(b1-3)GlcNAc(b1-3)Gal(b1-4)Glc
# How it was run: as §1
# [5] = target: Fuc(a1-2)Gal(b1-3)[Fuc(a1-4)]GlcNAc
# How it was run: as §1
# Fuc(a1-2)Gal(b1-4)Glc = target: Fuc(a1-2)Gal(b1-4)Glc
# How it was run: as §1
# Fuc(a1-2)Gal(b1-4)GlcNAc = target: Fuc(a1-2)Gal(b1-4)GlcNAc
# How it was run: as §1
# [6] = target: Fuc(a1-2)Gal(b1-4)GlcNAc(b1-3)Gal(b1-4)GlcNAc
# How it was run: as §1
# [7] = target: Fuc(a1-2)Gal(b1-4)GlcNAc(b1-3)Gal(b1-4)GlcNAc(b1-3)Gal(b1-4)GlcNAc
# How it was run: as §1
# [8] = target: Fuc(a1-2)Gal(b1-4)[Fuc(a1-3)]GlcNAc
# How it was run: as §1
# [9] = target: Fuc(a1-2)Gal(b1-4)[Fuc(a1-3)]GlcNAc(b1-3)Gal(b1-4)[Fuc(a1-3)]GlcNAc
# How it was run: as §1
# [10] = target: Fuc(a1-2)Gal(b1-4)[Fuc(a1-3)]GlcNAc(b1-3)Gal(b1-4)[Fuc(a1-3)]GlcNAc(b1-3)Gal(b1-4)[Fuc(a1-3)]GlcNAc
# How it was run: as §1
# Fuc(a1-2)GlcNAc = target: Fuc(a1-2)GlcNAc
# How it was run: as §1
# Fuc(a1-2)[Gal(a1-3)]Gal = target: Fuc(a1-2)[Gal(a1-3)]Gal
# How it was run: as §1
# [11] = target: Fuc(a1-2)[Gal(a1-3)]Gal(b1-3)GlcNAc
# How it was run: as §1
# [12] = target: Fuc(a1-2)[Gal(a1-3)]Gal(b1-4)Glc
# How it was run: as §1
# [13] = target: Fuc(a1-2)[Gal(a1-3)]Gal(b1-4)GlcNAc
# How it was run: as §1
# [14] = target: Fuc(a1-2)[Gal(a1-3)]Gal(b1-4)[Fuc(a1-3)]GlcNAc
# How it was run: as §1
# [15] = target: Fuc(a1-2)[Gal(a1-4)]Gal(b1-4)GlcNAc
# How it was run: as §1
# [16] = target: Fuc(a1-2)[GalNAc(a1-3)]Gal
# How it was run: as §1
# [17] = target: Fuc(a1-2)[GalNAc(a1-3)]Gal(b1-3)GlcNAc
# How it was run: as §1
# [18] = target: Fuc(a1-2)[GalNAc(a1-3)]Gal(b1-4)Glc
# How it was run: as §1
# [19] = target: Fuc(a1-2)[GalNAc(a1-3)]Gal(b1-4)GlcNAc
# How it was run: as §1
# [20] = target: Fuc(a1-2)[GalNAc(a1-3)]Gal(b1-4)[Fuc(a1-3)]GlcNAc
# How it was run: as §1
# [21] = target: Fuc(a1-2)[GalNAc(a1-4)]Gal(b1-4)GlcNAc
# How it was run: as §1
# [22] = target: Fuc(a1-2)[GalNAc(b1-3)]Gal
# How it was run: as §1
# Fuc(a1-3)GlcNAc = target: Fuc(a1-3)GlcNAc
# How it was run: as §1
binder,measurement,setting,value
B1,glycan array binding signal (z-score),Fuc(a1-2)Gal,-0.385
same,glycan array binding signal (z-score),Fuc(a1-2)Gal(b1-3)GalNAc,-0.435
same,glycan array binding signal (z-score),[1],-0.291
same,glycan array binding signal (z-score),[2],-0.361
same,glycan array binding signal (z-score),[3],-0.249
same,glycan array binding signal (z-score),Fuc(a1-2)Gal(b1-3)GlcNAc,-0.441
same,glycan array binding signal (z-score),[4],-0.437
same,glycan array binding signal (z-score),[5],-0.451
same,glycan array binding signal (z-score),Fuc(a1-2)Gal(b1-4)Glc,-0.429
same,glycan array binding signal (z-score),Fuc(a1-2)Gal(b1-4)GlcNAc,-0.424
same,glycan array binding signal (z-score),[6],-0.421
same,glycan array binding signal (z-score),[7],-0.377
same,glycan array binding signal (z-score),[8],-0.401
same,glycan array binding signal (z-score),[9],-0.234
same,glycan array binding signal (z-score),[10],0.125
same,glycan array binding signal (z-score),Fuc(a1-2)GlcNAc,-0.407
same,glycan array binding signal (z-score),Fuc(a1-2)[Gal(a1-3)]Gal,-0.411
same,glycan array binding signal (z-score),[11],-0.455
same,glycan array binding signal (z-score),[12],-0.351
same,glycan array binding signal (z-score),[13],-0.445
same,glycan array binding signal (z-score),[14],-0.414
same,glycan array binding signal (z-score),[15],-0.446
same,glycan array binding signal (z-score),[16],-0.457
same,glycan array binding signal (z-score),[17],-0.395
same,glycan array binding signal (z-score),[18],-0.394
same,glycan array binding signal (z-score),[19],-0.437
same,glycan array binding signal (z-score),[20],-0.377
same,glycan array binding signal (z-score),[21],-0.452
same,glycan array binding signal (z-score),[22],-0.381
same,glycan array binding signal (z-score),Fuc(a1-3)GlcNAc,-0.421
